According to PMC4336329 (PLoS ONE, 2015):
The whole screen tested about 310,000 compounds, of which about 14,000 (4.5%) showed an effect of 50% or more. The effect is printed as a negative number. This is one part of the list.

Biological target: human ether-à-go-go-related gene (hERG) potassium channel (human, UniProt Q12809)
Test: primary screen, population patch clamp on CHO cells stably expressing hERG
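Further: peak tail current of the secondary pulse compared with the same well before compound.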

Sequence of human ether-à-go-go-related gene (hERG) potassium channel (Q12809 whole entry, looked up): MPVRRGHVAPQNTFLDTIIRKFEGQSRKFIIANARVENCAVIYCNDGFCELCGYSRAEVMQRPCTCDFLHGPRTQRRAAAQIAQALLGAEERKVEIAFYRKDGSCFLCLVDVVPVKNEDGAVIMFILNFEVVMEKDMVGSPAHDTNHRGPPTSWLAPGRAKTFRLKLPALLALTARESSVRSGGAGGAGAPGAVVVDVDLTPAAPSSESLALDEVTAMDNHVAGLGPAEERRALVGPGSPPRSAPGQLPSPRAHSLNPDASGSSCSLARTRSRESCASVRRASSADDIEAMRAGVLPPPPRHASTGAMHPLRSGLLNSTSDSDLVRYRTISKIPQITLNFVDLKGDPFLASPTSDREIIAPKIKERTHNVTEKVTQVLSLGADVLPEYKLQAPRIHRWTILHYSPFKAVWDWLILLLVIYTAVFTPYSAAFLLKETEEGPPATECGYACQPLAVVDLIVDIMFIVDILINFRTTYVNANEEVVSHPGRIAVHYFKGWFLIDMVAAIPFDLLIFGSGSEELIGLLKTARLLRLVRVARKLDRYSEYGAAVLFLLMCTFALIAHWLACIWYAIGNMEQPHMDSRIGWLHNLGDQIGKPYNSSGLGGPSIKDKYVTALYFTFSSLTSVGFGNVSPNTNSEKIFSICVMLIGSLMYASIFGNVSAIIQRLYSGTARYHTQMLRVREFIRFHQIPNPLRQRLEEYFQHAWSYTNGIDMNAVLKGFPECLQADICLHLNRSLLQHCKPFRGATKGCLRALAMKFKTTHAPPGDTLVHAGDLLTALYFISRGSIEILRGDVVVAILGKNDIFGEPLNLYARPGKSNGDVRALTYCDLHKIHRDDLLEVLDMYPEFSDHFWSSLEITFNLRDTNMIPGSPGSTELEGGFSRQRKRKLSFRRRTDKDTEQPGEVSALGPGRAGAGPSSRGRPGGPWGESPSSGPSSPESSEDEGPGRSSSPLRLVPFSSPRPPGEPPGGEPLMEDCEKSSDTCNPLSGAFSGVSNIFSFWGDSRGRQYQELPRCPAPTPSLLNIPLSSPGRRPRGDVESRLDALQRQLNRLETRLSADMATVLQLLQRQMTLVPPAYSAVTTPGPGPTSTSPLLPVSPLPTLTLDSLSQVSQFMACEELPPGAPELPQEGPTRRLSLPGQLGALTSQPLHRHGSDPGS

Compound | hERG current change (%, negative = inhibition) at 10uM [%]
CNc1nc(-c2ccc3c(c2)CCN3C(=O)c2cccc(F)c2)cs1 | -7.81
CCOCCCN1C(=O)CN(C2CCCCC2)C(=O)C1c1ccc(OC)c(OC)c1 (stereo not shown) | 5.23
CCn1c(=O)cc(SCC(=O)NCc2cccnc2)c2ccccc21 | -5.05
COc1cc(C)c(COc2ncnc3ccccc23)cc1OC | 0.808
O=C1[C@@H]2C(c3cccnc3)=NO[C@@H]2C(=O)N1c1ccc(Cl)cc1Cl | 10.2
CC1=C/C(=C/N(C)C)C(=O)O1 | 27.4
CC1(C)Cc2c(sc(NC(=O)C(=O)NCCCN3CCOCC3)c2C(N)=O)CO1 | 7.55
O=C(c1ccccc1)c1nccn1-c1ccc(Cl)nn1 | 2.26
O=C(Nc1ccc(Cl)c(Cl)c1)Nc1ccccc1O | 3.98
CCN(CC)C(=O)CN1C(=O)C(=O)c2ccccc21 | 21.3
O=C(/C=C/c1ccc2c(c1)OCCO2)c1ccc(O)cc1 | 0.62
CC(C)C(=O)Nc1nc2cc3c(cc2s1)OCCO3 | -4.59
CCOC(=O)CC1C(=O)NCCN1C(=O)c1cc2c(=O)n3cccc(C)c3nc2s1 (stereo not shown) | 8.8
CCNc1nnc(-c2ccncc2)s1 | 7.29
Cc1cccc(NC(=O)c2nc[nH]c2C(=O)Nc2cccc(C)c2)c1 | 25.1
COc1cccc(CNC(=O)C(C)n2nc(C)n3c(cc4occc43)c2=O)c1 (stereo not shown) | 7.17
COC(=O)c1ccc(C(=O)OC)c(NC(=O)COC(=O)CCOc2ccc(C)cc2)c1 | 21.2
CCc1ccc(NC(=O)N(C2CCCCC2)C(C)c2cccnc2)cc1 (stereo not shown) | -3.41
CC1CN(S(=O)(=O)c2ccc(NC(=O)CCCN3C(=O)c4ccccc4C3=O)cc2)CC(C)O1 (stereo not shown) | -3.02
CC1CC(C)CN(C(=O)CSc2nc(N)cc(=O)[nH]2)C1 (stereo not shown) | -4.45
Cl.Cn1nnc(C(O)CNCc2ccc(Cl)cc2)n1 (stereo not shown) | 4.36
Cc1ccc(-c2nnc(OCc3cccnc3)c3ccccc23)cc1 | -75.7
CCCCn1c(N)c(N(CC(C)C)C(=O)CSc2n[nH]c(-c3ccc(C)cc3)n2)c(=O)[nH]c1=O | 0.238

Compound | hERG current change (%, negative = inhibition) at 10uM [%]
CCCCCCC(=O)c1c(O)n(-c2ccccc2OC)c(=O)[nH]c1=O | 12.2
Cc1ccc(S(=O)(=O)NC2CC(C)(C)NC(C)(C)C2)cc1C | 5.89
Cc1ccc(C(c2nnnn2C2CCCCC2)N(C)C2CCCCC2)cc1 (stereo not shown) | -9.47
CC(=O)Nc1nnc(-c2ccc(Cl)s2)o1 | -1.87
CCCCC(=O)Nc1nnnn1CCC | 1.53
O=C(NC(=S)N1CCCCC1)c1csc([N+](=O)[O-])c1 | 11.5
O=C(COc1ccc([N+](=O)[O-])cc1)NNC(=O)Nc1ccc([N+](=O)[O-])cc1 | -9.92
Cc1csc(NC(=O)C2CCCN2C(=O)Oc2ccccc2)n1 (stereo not shown) | -19.8
O=C1/C(=C\c2cc(Cl)c(O)c(Cl)c2)SC(=S)N1Cc1ccccc1 | 15.9
Cc1nnc(N=c2ssnc2Cl)o1 | 21.1
Nc1sc2c(c1C(=O)NCCc1ccccc1)CCC2 | 1.56
Cc1c(Br)cc(C(=O)NC2CCCCC2)c(C)c1C | 20.5
Cn1c(CSCc2ccccc2Cl)n[nH]c1=S | 7.1
CCCCCCCC/C=C\CCCCCCCC(=O)O | 11.6
CCc1ccc(N2CC(C(=O)Nc3nnc(CC)s3)CC2=O)cc1 (stereo not shown) | -17.8
CCOCCCNC(=O)C(c1ccc(C)cc1)N(Cc1ccc2c(c1)OCO2)C(=O)CNC(C)=O (stereo not shown) | 7.79
Cc1nn(Cc2ccc(F)cc2)c2sc(C(=O)Nc3ccc(N4CCOCC4)cc3N3CCOCC3)cc12 | -21.6
O=C(CSc1nnc(-c2cccs2)n1-c1ccccc1)Nc1ccccc1 | -44.3
S=C(Nc1ccc(Br)cc1)N1CCN(C2CCCCC2)CC1 | -17.3
Cc1nc(N/C(N)=N/S(=O)(=O)c2ccc([N+](=O)[O-])cc2)nc2ccccc12 | -46.6
CCCCN(CC)Cc1ccc(CNC(=O)Nc2ccc(OC)cc2OC)o1 | -3.35
CN(CCc1ccccc1)C1CCCN(S(=O)(=O)CC(F)(F)F)C1 (stereo not shown) | -3.61
CN(C)CP(=O)(O)CN(C)C=O | 4.75

Compound | hERG current change (%, negative = inhibition) at 10uM [%]
COc1ccc(Cc2nnc(NC(=O)c3ccco3)s2)cc1OC | 5.42
Cc1cccc(N2CCN(C(=O)COc3cccc4c3OC(C)(C)C4)CC2)c1C | -2.16
CNC(=O)c1nc(C)c(C2(C)CC(c3cccc([N+](=O)[O-])c3)=NO2)s1 (stereo not shown) | -23.9
COc1ccc(C(=O)NNC(=O)c2cc3cc([N+](=O)[O-])ccc3oc2=O)cc1OC | 3.9
O=C(CCC(=O)c1ccc(Br)cc1)Nc1ccc(F)cc1 | 23.7
CCN1/C(=C\C(C)=O)Sc2ccc(OC)cc21 | 13.9
CC(C)(C)c1ccc(OCCC(=O)OCC(=O)NCc2ccccc2)cc1 | 3.21
COc1ccc(Nc2nc(N3CCCC3)c3ccccc3n2)cc1.Cl | -70
O=C(c1cc(-c2cccc(O)c2)on1)N1CCCCC1 | -1.57
O=S(=O)(NC1CCCCCCC1)OCC(Cl)(Cl)Cl | -21.4
Cc1n[nH]c(C)c1S(=O)(=O)N1CCN(C(=O)c2ccco2)CC1 | 9.7
O=C(NCCc1ccccc1)C1CCC(=O)N(Cc2cccc(C(F)(F)F)c2)C1 (stereo not shown) | -14.2
O=C(C[n+]1cc(-c2ccc(Br)cc2)n2c1CCCCC2)c1ccccc1.[Br-] | -9.11
O=C(OCc1cccc([N+](=O)[O-])c1)c1ccc[nH]c1=O | 17.2
Cc1nc(SCC(=O)N2c3ccccc3Sc3ccccc32)n[nH]1 | 9.17
Cc1cccc(-c2cc3nc4c(c(NCc5ccco5)n3n2)CCCC4)c1 | -28.4
COc1ccc(C(=O)NC(C)c2ccccc2)cc1Br (stereo not shown) | -18
Cc1cc(C)nc(Nc2n[nH]c(-c3cccc4ccccc34)n2)n1 | -28.9
O=C(CSc1nnc(-c2ccco2)n1Cc1ccccc1)NCc1ccccc1 | -51.8
C=CCNC(=O)C1CCN(c2cnccn2)CC1 | 27.8
CC(C)(C)C(=O)Nc1cc(S(=O)(=O)Nc2ccc(Cl)cc2)ccc1O | 13.6
O=C(Nc1ccc(Cc2ccncc2)cc1)c1cccs1 | -28.2
O=C(C1CCCN1S(=O)(=O)c1ccc(Cl)cc1)N1CCOCC1 (stereo not shown) | 4.19

Compound | hERG current change (%, negative = inhibition) at 10uM [%]
CCOC(=O)C1C2C=CC3(CN(CCc4ccccc4)C(=O)C13)O2 (stereo not shown) | 8.39
COc1ccccc1CCC(=O)OCC(=O)NC1CCCC1 | 0.299
COc1ccc(C[C@H]2CN3C(=NC[C@@H]3C(C)C)N2CCNC(=O)c2ccc(C)c(Br)c2)cc1 | -79
Cc1csc2c(N3CCN(C(=O)Nc4ccccc4)CC3)ncnc12 | -25.4
NC(=O)CC(NC(=O)c1ccccc1)c1ccc(NCCOc2ccccc2)c([N+](=O)[O-])c1 (stereo not shown) | -4.06
O=C(Nc1ccc(N2CCCC2)c(Cl)c1)c1ccc(Br)o1 | -7.29
Cc1cccc(C(=O)OCC(=O)c2ccc(CC(=O)N3CCOCC3)s2)c1C | -52.4
COc1ccc2nc(NC(=O)CN(C)S(=O)(=O)c3cccs3)sc2c1 | -26
CSCCCc1cn([C@@H](CO)C(=O)NCCCCCCCCCCC(=O)N2CCNCC2)nn1 | 19.3
COc1cccc(C(=O)NC2CC3CCCC(C2)N3CC(=O)Nc2ccc(N(C)C)cc2)c1 (stereo not shown) | -49.3
COc1ccc(Cl)cc1NC(=O)c1c(-c2ccccc2)noc1C | 7.22
COc1ccc(C(=O)Nc2cccc(C(=O)N3CCCC3)c2)cc1 | -3.26
O=C1NC(=O)C(CC(=O)N(Cc2cccs2)C2(C(=O)NC3CCCCC3)CCCCC2)N1 (stereo not shown) | 9.42
CC(=O)NC(Cc1c[nH]c2ccccc12)C(=O)NCCc1ccccc1 (stereo not shown) | 15.4
CCN(CC(=O)Nc1ccc2c(c1)OCCO2)C(=O)/C=C/c1cccc(OC)c1OC | -2.25
O=C(O)CC(CC(=O)N1CCN(C(=O)c2ccco2)CC1)c1ccccc1 (stereo not shown) | 5.68
COc1c2n(C)ccc3c-2n(c(=O)c1=O)c1ccccc31 | 16.8
O=C(CN1C(=O)c2ccc([N+](=O)[O-])cc2C1=O)Nc1nccs1 | 21.4
COc1ccc(N2C(=O)CN=C2Nc2cccc(C)c2C)cc1OC | 13
COc1cc(NC(=O)[C@@H]2CCCN2S(=O)(=O)c2cccc3cccnc23)cc(OC)c1OC | 6.58
O=C(NCc1ccco1)C(=S)N1CCCC1 | 14.6
Clc1ccc2nc(CSCc3ccccc3)cn2c1 | -6.87
